Results taken from PMC11995724, “Antibiotic target discovery by integrated phenotypic and activity-based profiling of electrophilic fragments” (Cell chemical biology, 2025).
About 110 (3.4%) of roughly 3,200 compounds showed an effect of 50% or more. Some of the results follow.

System: T1, V. cholerae SAD30
T1 construct: SAD30
Design: species or system S. aureus MSSA476 (TSB) or V. cholerae SAD30 (LB); 384-well bacterial growth screen at 25 uM, OD600 relative to DMSO control
Settings: relative growth, OD600, LB; 25 µM; inhibitor

Row | SMILES | % of control remaining
1 | CC(Cl)C(=O)N1CCCC1c1cccc(N(C)C)c1 (centres unmarked) [7-A22, 2-chloro-1-{2-[3-(dimethylamino)phenyl]pyrrolidin-1-yl}propan-1-one] | 87.7581%
2 | CC(Cl)C(=O)N(C)Cc1ncc(C2CC2)o1 (centres unmarked) [5-B22, 2-chloro-N-[(5-cyclopropyl-1,3-oxazol-2-yl)methyl]-N-methylpropanamide] | 108.774%
3 | C=CC(=O)N(C)c1ccc(C#N)c(Cl)c1 [3-G05, N-(3-chloro-4-cyanophenyl)-N-methylprop-2-enamide] | 100.029%
4 | COc1cccc(NC(=O)C(C#N)=Cc2c[nH]c(-c3ccccc3)n2)c1 [9-C20, 2-cyano-N-(3-methoxyphenyl)-3-(2-phenyl-1H-imidazol-4-yl)prop-2-enamide] | 84.0925%
5 | N#CC(=Cc1ccc(-c2cccc([N+](=O)[O-])c2)s1)C(=O)NC1CC1 [9-G18, 2-cyano-N-cyclopropyl-3-[5-(3-nitrophenyl)thiophen-2-yl]prop-2-enamide] | 86.1319%
6 | CC(Cl)C(=O)NC1CCCN(c2cnn(C)c2)C1 (centres unmarked) [7-K19, 2-chloro-N-[1-(1-methyl-1H-pyrazol-4-yl)piperidin-3-yl]propanamide] | 79.4317%
7 | C=CC(=O)NC(C)(C)c1noc(CCC)n1 [1-N10, N-[2-(5-propyl-1,2,4-oxadiazol-3-yl)propan-2-yl]prop-2-enamide] | 67.2228%
8 | N#CC(=Cc1c(F)cccc1F)C(=O)NCCc1ccccc1 [8-D18, 2-cyano-3-(2,6-difluorophenyl)-N-(2-phenylethyl)prop-2-enamide] | 66.8253%
9 | O=C(CCl)Nc1nc2ccc([N+](=O)[O-])cc2s1 [4-H08, 2-chloro-N-(6-nitro-1,3-benzothiazol-2-yl)acetamide] | 112.832%
10 | Cc1ccc(NC(=O)C(C#N)=Cc2cccc(Cl)c2Cl)cc1 [8-D06, 2-cyano-3-(2,3-dichlorophenyl)-N-(4-methylphenyl)prop-2-enamide] | 77.0224%
11 | O=C(CCl)NCc1ccn(Cc2ccccc2)n1 [7-H10, N-[(1-benzyl-1H-pyrazol-3-yl)methyl]-2-chloroacetamide] | 82.6037%
12 | C=CC(=O)Nc1ccc(-n2ccccc2=O)cc1F [3-J16, N-[2-fluoro-4-(2-oxo-1,2-dihydropyridin-1-yl)phenyl]prop-2-enamide] | 91.7368%
13 | C=CC(=O)NC(C)c1nc(C2CCCCC2)no1 (centres unmarked) [1-N17, N-[1-(3-cyclohexyl-1,2,4-oxadiazol-5-yl)ethyl]prop-2-enamide] | 87.5934%
14 | C#Cc1cccc(N(Cc2cc3n(n2)CCCO3)C(=O)CCl)c1 [5-O10, 2-chloro-N-(3-ethynylphenyl)-N-({5H,6H,7H-pyrazolo[3,2-b][1,3]oxazin-2-yl}methyl)acetamide] | 99.1909%
15 | CC(Cl)C(=O)NC(C)c1ccc(Cl)cc1Cl (centres unmarked) [5-M15, 2-chloro-N-[1-(2,4-dichlorophenyl)ethyl]propanamide] | 80.8658%
16 | CC(Cl)C(=O)N1CCCN(C(=O)c2cc(Cl)cn2C)CC1 (centres unmarked) [7-N07, 2-chloro-1-[4-(4-chloro-1-methyl-1H-pyrrole-2-carbonyl)-1,4-diazepan-1-yl]propan-1-one] | 80.8855%
17 | C=CC(=O)N1CCC(C(=O)NC2CCCc3cc(F)ccc32)CC1 (centres unmarked) [2-K18, N-(6-fluoro-1,2,3,4-tetrahydronaphthalen-1-yl)-1-(prop-2-enoyl)piperidine-4-carboxamide] | 78.153%
18 | C=CC(=O)N1CCC(c2nc(C)no2)CC1 [3-E05, 1-[4-(3-methyl-1,2,4-oxadiazol-5-yl)piperidin-1-yl]prop-2-en-1-one] | 109.381%
19 | COc1ccc(CCN2C(=O)C=CC2=O)cc1OC [10-H07, 1-[2-(3,4-dimethoxyphenyl)ethyl]-2,5-dihydro-1H-pyrrole-2,5-dione] | 98.344%
20 | C=CC(=O)N1CSCC1C(=O)N1CCOCC1 (centres unmarked) [2-N21, 1-[4-(morpholine-4-carbonyl)-1,3-thiazolidin-3-yl]prop-2-en-1-one] | 96.0629%
21 | NS(=O)(=O)c1cccc(N2C(=O)C=CC2=O)c1 [10-I05, 3-(2,5-dioxo-2,5-dihydro-1H-pyrrol-1-yl)benzene-1-sulfonamide] | 102.396%
22 | C=CC(=O)Nc1cc(Cl)cc(C)c1OC [1-E16, N-(5-chloro-2-methoxy-3-methylphenyl)prop-2-enamide] | 87.145%

Row | SMILES | % of control remaining
23 | O=C1C=CC(=O)N1c1cc(C(F)(F)F)ccc1Cl [10-G09, 1-[2-chloro-5-(trifluoromethyl)phenyl]-2,5-dihydro-1H-pyrrole-2,5-dione] | 26.3394%
24 | CC(Cl)C(=O)N1Cc2ccccc2OC(C)(C)C1 (centres unmarked) [6-H19, 2-chloro-1-(2,2-dimethyl-2,3,4,5-tetrahydro-1,4-benzoxazepin-4-yl)propan-1-one] | 89.7905%
25 | Cc1cccc(NC(=O)C(C#N)=Cc2cnc3ccc(C#N)cn23)c1 [9-O18, 2-cyano-3-{6-cyanoimidazo[1,2-a]pyridin-3-yl}-N-(3-methylphenyl)prop-2-enamide] | 90.3467%
26 | O=C(CCl)N1c2ccccc2Sc2ccc(Cl)cc21 [4-N07, 2-chloro-1-(2-chloro-10H-phenothiazin-10-yl)ethan-1-one] | 99.3746%
27 | CCOC(=O)c1c2c(nn1C)CCN(C(=O)C(C)Cl)C2 (centres unmarked) [7-I07, ethyl 5-(2-chloropropanoyl)-2-methyl-2H,4H,5H,6H,7H-pyrazolo[4,3-c]pyridine-3-carboxylate] | 74.5415%
28 | COc1ccc2c(c1)CCCN(C(=O)C(C)Cl)C2 (centres unmarked) [5-D17, 2-chloro-1-(7-methoxy-2,3,4,5-tetrahydro-1H-2-benzazepin-2-yl)propan-1-one] | 91.4574%
29 | Cc1cc(C(C)(C)C)cc(C)c1NC(=O)CCl [4-L19, N-(4-tert-butyl-2,6-dimethylphenyl)-2-chloroacetamide] | 96.4417%
30 | O=C(CCl)N1N=C(c2cccc(F)c2)CC1c1cccs1 (centres unmarked) [4-E22, 2-chloro-1-[3-(3-fluorophenyl)-5-(thiophen-2-yl)-4,5-dihydro-1H-pyrazol-1-yl]ethan-1-one] | 114.729%
31 | C=CC(=O)N1CCC(C(=O)N2CCCC2C2OCCO2)CC1 (centres unmarked) [2-L12, 1-{4-[2-(1,3-dioxolan-2-yl)pyrrolidine-1-carbonyl]piperidin-1-yl}prop-2-en-1-one] | 91.2767%
32 | N#CC(=Cc1cccs1)C(=O)NCc1ccco1 [9-L08, 2-cyano-N-[(furan-2-yl)methyl]-3-(thiophen-2-yl)prop-2-enamide] | 83.5486%
33 | C=CC(=O)N1CCOCC1c1ncnn1Cc1ccccc1 (centres unmarked) [1-L12, 1-[3-(1-benzyl-1H-1,2,4-triazol-5-yl)morpholin-4-yl]prop-2-en-1-one] | 59.1266%
34 | C=CC(=O)Nc1ccc(OC)cc1S(C)(=O)=O [1-C04, N-(2-methanesulfonyl-4-methoxyphenyl)prop-2-enamide] | 101.794%
35 | CC1CN(CCCNC(=O)CCl)CC(C)O1.Cl (centres unmarked) [6-G11, 2-chloro-N-[3-(2,6-dimethylmorpholin-4-yl)propyl]acetamide hydrochloride] | 83.2686%
36 | C=CC(=O)NCc1nncn1-c1ccccc1 [1-G07, N-[(4-phenyl-4H-1,2,4-triazol-3-yl)methyl]prop-2-enamide] | 92.6756%
37 | C=CC(=O)Nc1ccc(C(=O)N2CCC[C@@H]2C(=O)OC)cc1 [2-E21, methyl (2R)-1-[4-(prop-2-enamido)benzoyl]pyrrolidine-2-carboxylate] | 99.9228%
38 | Cc1ccc(C=C(C#N)C(=O)Nc2c(Cl)cccc2Cl)o1 [9-N21, 2-cyano-N-(2,6-dichlorophenyl)-3-(5-methylfuran-2-yl)prop-2-enamide] | 79.3338%
39 | O=C(CCl)c1cscn1 [10-L08, 2-chloro-1-(1,3-thiazol-4-yl)ethan-1-one] | 0%
40 | C=CC(=O)Nc1ccc(C(=O)N2CCCC2C(=O)NC2CC2)cc1 (centres unmarked) [2-I21, N-cyclopropyl-1-[4-(prop-2-enamido)benzoyl]pyrrolidine-2-carboxamide] | 105.79%
41 | CC(C)NC(=O)C(C#N)=Cc1ccccc1OC(C)C [9-C15, 2-cyano-N-(propan-2-yl)-3-[2-(propan-2-yloxy)phenyl]prop-2-enamide] | 83.5486%
42 | C=CC(=O)N(Cc1cn(CC)nc1C)C1CC1 [2-D13, N-cyclopropyl-N-[(1-ethyl-3-methyl-1H-pyrazol-4-yl)methyl]prop-2-enamide] | 91.5854%
43 | C=CC(=O)N1CCC(C(=O)N2CCC(OC)(C(F)(F)F)CC2)CC1 [3-E08, 1-{4-[4-methoxy-4-(trifluoromethyl)piperidine-1-carbonyl]piperidin-1-yl}prop-2-en-1-one] | 101.088%
44 | CC(C)NC(=O)C(C#N)=Cc1cccc(F)c1F [9-J20, 2-cyano-3-(2,3-difluorophenyl)-N-(propan-2-yl)prop-2-enamide] | 89.8029%
